# Source: PubChem BioAssay (NCI)
# “And” between values parts separate entries of the source, which are not always exact repeats. Equal values may be shown once.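 Grown in 96-well plates, cells were treated for 48 hours with each compound at five concentrations. Insufficient inhibition: endpoint recorded as highest concentration tested. The concentration for 50% growth inhibition is given as GI50. At the TGI there is no net growth.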 Square brackets hold non-standard residues; d marks the D form. Peptide text beside a SMILES is read from it. * marks the point of attachment. NMeF = CN[CH](Cc1ccccc1)C(=O)O; NMeV = CN[CH](C(=O)O)C(C)C; Nle = CCCC[C@H](N)C(=O)O; Cbz = O=C(OCc1ccccc1)*; Boc = CC(C)(C)OC(=O)*
# Tested on: NCI-H322M lung
# Test: NCI tumour cell line growth inhibition, 48 h
SMILES,TGI,GI50 [µM]
Cc1ccc(C2(C)CC/C(=N/N=C3/CCC(C)(c4ccc(C)c(C)c4)c4cc(C)c(C)cc43)c3cc(C)c(C)cc32)cc1C (stereo unspecified),> 100 µM,–
COC(=O)C(=Cc1ccccc1[N+](=O)[O-])C(=O)OC,24.3 µM,11.9
CC(=O)c1ccc(NC(=O)/C(CC(=O)/C=C/c2ccccc2)=N/NC(N)=S)cc1,> 100 µM,–
CNS(=O)(=O)NN(C)S(=O)(=O)c1ccc(OC)cc1,> 100 µM,–
c1ccc(N2CCN(CN3CCN(c4ccccc4)C3)C2)cc1,> 100 µM,> 100
C[C@]12CCC3[C@@H](CC[C@@H]4c5nonc5CC[C@]34C)C1CCC2=O (stereo partly specified),> 100 µM,–
CCN(CC)CCNc1ccc(C)c2sc3ccccc3c(=O)c12 (tested in a mixture with another compound),13.7 µM and 14.5 µM,3.57
O=C(/C=C/c1cccc2ccccc12)c1ccccc1,25 µM,–
CCCCC1C=Cn2c(=O)oc3c(OC(C)C)c(OC(C)C)c(O)c1c32 (stereo unspecified),61.9 µM,–
COC1(C)OC[C@@]2(C)OC(C)C1(C)C2O[Si](C(C)C)(C(C)C)C(C)C (stereo partly specified),> 100 µM,–
Cc1cc(C23OC4COC(C)(C)OC4C2OC(C)(C)O3)nc2ccccc12 (stereo unspecified),> 100 µM,–
CCC[CH2][Sn]1([CH2]CCC)[O]CC(c2ccccn2)C[O]1,> 100 µM,33
N#CC(C#N)=C(C(C#N)C#N)C(C#N)C#N,> 100 µM,–
O=C1CC(c2ccccc2Cl)C2(C(=O)NC(=S)NC2=O)C(c2ccccc2Cl)C1 (stereo unspecified),4.18 µM,–
O=C1Nc2ccc(Br)cc2C1=Nc1ccc2c(c1)OCO2,> 100 µM,–
COC(=O)c1cc2cc(OC)c(OC)cc2cc(C(=O)OC)c1=O,> 100 µM,–
CC(NS(=O)(=O)c1ccc(Cl)cc1)C(=O)O (stereo unspecified),> 100 µM,–
CC[C@H](Nc1cc(C)nc(N)n1)c1nc2cccc(NCc3ccc(C(=O)NO)cc3)c2c(=O)n1-c1ccccc1,11.4 µM,2.92
C#Cc1nc(N)c2ncn(C3OC(COS(N)(=O)=O)C(O)C3O)c2n1 (stereo unspecified),< 0.0445 µM,–
COC(=O)c1c(O)c2c(c3c1OC(C)(C)CC3)OC(C)(C)CC2,68.9 µM,–
Cc1ccc(/C=C2\CN(C)CC3=C2NC(=S)NC3c2ccc(C)cc2)cc1 (stereo unspecified),> 100 µM,–
O=C(Nc1ccc(OCc2nnc(-c3ccc(Cl)cc3)o2)c(F)c1)Nc1ccc(Cl)c(Cl)c1,> 100 µM,11.4
C[C@]12CC[C@@H]3c4ccc(O)cc4CC[C@H]3[C@@H]1CC[C@@H]2NS(=O)(=O)c1cccc(OC(F)(F)F)c1,15.5 µM,4.42
Clc1ccc(Cl)c(NNc2cc(Cl)ccc2Cl)c1,> 10 µM,–
CC(=O)NCCC1CN(C(=O)/C=C\I)c2ccccc21 (stereo unspecified),29.7 µM,–

SMILES,TGI,GI50 [µM]
CC(C)(C)OCC1NC(=O)[C@@H]2Cc3c([nH]c4ccccc34)C(C3CCCCC3)N2C1=O (stereo partly specified),> 100 µM,–
C=C1CC(OC)(C(OC)C(=O)N(C)[C@H]2OCO[C@H]3C2O[C@H](C[C@@H](COC)OC)C(C)(C)C3OC)O[C@H](C)[C@@H]1C (stereo partly specified),36.8 µM,–
CCOC(=O)NN(C(=O)OCC)C(=C(c1ccccc1)N1CCOCC1)N(NC(=O)OCC)C(=O)OCC,> 100 µM,–
O=C(CC(=O)Nc1ccc(C(=O)O)cc1)Nc1ccc(C(=O)O)cc1,> 100 µM,–
CCCCSC(=CC(=O)c1cccc(C(=O)C=C(SCCCC)SCCCC)n1)SCCCC,> 100 µM,–
CCOP(=O)(OCC)OC1c2[nH]ccc2-c2cc(C(=O)OC)[nH]c2C1OC (stereo unspecified),> 100 µM,–
O=C(/C=C/c1cccc(O)c1)c1cccc(-n2cc(-c3ccc(Cl)cc3)[nH]c2=O)c1,10.9 µM,2.52
CCOC(=O)N1CCN(c2ccc3ccc(N)nc3n2)CC1,> 100 µM,–
CC(=O)c1c(C)cn(S(=O)(=O)NC(=O)Nc2nncs2)c1C,> 100 µM,–
CCCCCC(=O)OCCOCCOCCOCCOCCOCc1ccccc1,> 100 µM,–
C/C(O)=c1\cc(C#N)c(=C(C#N)C#N)nc1C,> 100 µM,–
O=C(CSc1nnc(Cc2ccccc2)o1)Nc1ccc(Cl)cc1Cl,> 100 µM,–
O=c1c2ccccc2nc(-c2ccccc2Cl)n1NCC1(O)OCC(O)C(O)C1O (stereo unspecified),> 100 µM,–
CC1OC2=N[C@@H]1C(=O)N[C@@H](Cc1ccccc1)C1=N[C@H](C(=O)N[C@@H](Cc3ccccc3)C3=N[C@H](C(=O)N[C@H]2Cc2ccccc2)C(C)O3)C(C)O1 (stereo partly specified),> 100 µM,–
CCOC(=O)C1=CC(C)(C(=O)OCC)Nc2c(nc(SC)[nH]c2=O)N1 (stereo unspecified),> 10 µM,–
COc1cc2c3c(c1O)N=NC=3CCN=2,58 µM,–
Cc1nc(Nc2ccc(Cl)cc2Cl)sc1C(=O)Nc1ccccc1,> 100 µM,–
CN(C)c1nc(N(C)C)sc(=O)n1,> 100 µM,–
CCCCCc1cccc(=O)o1,> 100 µM,–
CC(=O)Nc1cccc(C#Cc2cncnc2Nc2ccc(OCc3cccc(F)c3)c(Cl)c2)n1,> 25 µM,1.51
N#Cc1nc(-c2ccccc2C(=O)O)oc1N,> 100 µM,–
CC(C)C(NC(=O)OC(C)(C)C)C(=O)N(C)C(Cc1ccccc1)C(=O)N(C)C(C(=O)N(C)C(C(=O)O)C(C)C)C(C)C (stereo unspecified) (Boc-V[NMeF][NMeV][NMeV]-OH; configuration not given here),> 100 µM,–
CCc1ccccc1N1C(=O)C(=O)C(c2nc3ccccc3s2)C(=O)C1=O,> 100 µM,–
O=C(CCc1ccc(O)cc1)NCCc1cccc(O)c1,> 50 µM,–
COC(=O)C1SC(N(C)c2ccccc2)=NC12c1ccccc1Nc1ccccc12 (stereo unspecified),74.3 µM,–

SMILES,TGI,GI50 [µM]
Cc1ccc(-c2c3c(nn2-c2ccc(S(=O)(=O)NC(=O)Nc4ccccc4)cc2)-c2ccccc2C3)cc1,30.4 µM,13.7
COC(=O)C(C(=O)C(=O)Nc1nc(=S)[nH][nH]1)c1csc(N)n1 (stereo unspecified),> 100 µM,–
COc1cc(C(=O)/C=C/c2c(C)n([O-])c3ccc(C(F)(F)F)cc3[n+]2=O)cc(OC)c1OC,> 100 µM,47.6
N#CC1=C(Cl)NC(Cl)=C(C#N)C1c1ccc(Cl)cc1,98.2 µM,–
COc1ccc2c3ccc4c(c3n(C)c2c1)C(=O)C=CC4=O,> 100 µM,–
CCc1nc(N)nc(N)c1-c1ccc2c(c1)nnn2CCc1ccccc1,> 72.5 µM,–
COCn1cnc2c(=O)n(-c3ccc(C)cc3)c(=S)n(-c3ccc(C)cc3)c21,> 100 µM,–
CC1=NN(C2=NS(=O)(=O)c3ccccc3N2C)C(=O)C1,> 100 µM,–
NC1CCCCC1N.O=NN1CCCCCC1(P(=O)([O-])[O-])P(=O)([O-])[O-].[Na+].[Pt+2],> 100 µM,> 100
NS(=O)(=O)c1ccc(N=Nc2ncccc2O)cc1,> 100 µM,–
Cc1cc(C)nc(NS(=O)(=O)c2ccc(NNc3c4ccccc4nc4c(C(=O)Nc5ccc(S(=O)(=O)N=C(N)N)cc5)cccc34)cc2)n1,> 100 µM,–
C[C@]12CC[C@H](O)CC1=CC[C@@H]1C2CC[C@]2(C)NC(=O)C(C#N)CC12 (stereo partly specified),> 100 µM,–
CCCC[C@@H](C=O)NC(=O)[C@H](CC(C)C)NC(=O)[C@H](CC(C)C)NC(=O)OCc1ccccc1 (Cbz-Leu-Leu-[Nle]-aldehyde),16.5 µM,3.02
CCOC(=O)C(CS)NC(=O)CCCCCCCC(=O)O (stereo unspecified),> 100 µM,–
N#Cc1nnc2ccccc2c1N,> 100 µM,–
COc1cc(-c2ccc(N=Nc3c(S(=O)(=O)O)cc4cc(S(=O)(=O)O)cc(N)c4c3O)c(OC)c2)ccc1N=Nc1c(S(=O)(=O)O)cc2cc(S(=O)(=O)O)cc(N)c2c1O,> 100 µM,–
O=c1ccn(C2OC(CN(O)CCC3C(O)C(CO)OC3n3ccc(=O)[nH]c3=O)C(O)C2O)c(=O)[nH]1 (stereo unspecified),> 100 µM,–
Cc1cn(C2CC(Br)C(COC(c3ccccc3)(c3ccccc3)c3ccccc3)O2)c(=O)[nH]c1=O (stereo unspecified),27.2 µM,–
COC(=O)Cc1c([C@H]2[C@H](CC(=O)OC)c3ccccc3N2C(=O)C(F)(F)F)[nH]c2ccccc12,> 100 µM,–
CC(=O)OC1(C)C(=O)OC/C2=C/CN(C)CCC(OC(=O)C(O)(C(C)Cl)CC1C)C2=O (stereo unspecified),> 100 µM,–
CC(=O)c1c(SCCN2CCCCCC2)n(-c2ccccc2)c(=S)n(-c2ccccc2)c1=O,> 61.6 µM,–
COc1ccc(OC)c2c(C(=O)O)c(C(C)c3ccccc3)ccc12 (stereo unspecified),> 100 µM,–
O=C(c1ccccc1)c1ccc2nc(-c3c(Cl)c(Cl)c(Cl)c(Cl)c3C(=O)N/N=C\C=C\c3ccccc3)[nH]c2c1,> 100 µM,–
CC1=CP(=O)(OC(C)C)CC(C)=C1Cl (stereo unspecified),> 100 µM,–
CCCOC(=O)c1ccc2c(c1)[N+](=O)C(C(=O)c1ccccc1)=C(C(F)(F)F)[N+]2=O,3.28 µM,1.82

SMILES,TGI,GI50 [µM]
C=C(C(=O)OC1C(CO)OC(OCC2CC[C@@H]3C[C@]4(OC(=O)C3=C)C(C)=CC(=O)C24)C(O)C1O)[C@@H]1CCC(CO)C2C(=O)C=C(C)[C@@]2(O)C1 (stereo partly specified),22.3 µM,–
CCOP(=O)(OCC)/C(C#N)=C/c1coc2cc(C)cc(C)c2c1=O,> 100 µM,–
COc1ccc(-c2nnc(-c3nsc4ccccc34)o2)cc1,> 100 µM,–
CCOc1ccc(NC(=O)CC2C(=O)Nc3ccccc3S2=O)cc1 (stereo unspecified),> 100 µM,–
Cc1cn(C(=O)NC23CC4CC(CC(C4)C2)C3)c(=O)[nH]c1=O,> 100 µM,–
C=C1C(=O)c2sccc2C(c2ccc(OC)c(OC)c2)C1COC(C)=O (stereo unspecified),40.4 µM,17.3
Cn1cnc2[nH]c(=O)[nH]c(=S)c21,> 100 µM,–
COc1cc(/C=C2/SC(c3ccccc3)N(c3cc(Cl)ccc3Cl)C2=O)cc(OC)c1OC (stereo unspecified),> 100 µM,–
O=C(O)CCC(N=C(C(=NC(CCC(=O)O)C(=O)O)c1ccccc1)c1ccccc1)C(=O)O (stereo unspecified),> 100 µM,–
N#CC(C#N)=c1ccc(=C2N3CCCC3CN2C23CC4CC(CC(C4)C2)C3)cc1 (stereo unspecified),> 100 µM,–
COC(=O)/C(=C(\C)NC(C)=O)c1c(C(=O)OC)[nH]c2ccccc12,> 100 µM,–
CN(C)CCCNc1c2c(nc3ccc(Cl)cc13)CCCC2,32.1 µM,–
CC1(C)C2CCC1(C)[C@H](O)[C@H]2Nc1cc(C(F)(F)F)cc(C(F)(F)F)c1 (stereo partly specified),18.6 µM,–
COc1ccccc1N1CCN(CC(O)COc2c(Br)c(Br)c(Br)c3c2OC(C)(C)C3)CC1 (stereo unspecified),52.6 µM,15
c1ccc2c(c1)CN1CCCC1CN2 (stereo unspecified),> 100 µM,–
O=S(=O)(c1ccccc1)[C@H]1[C@@H]2O[C@@H]2C[C@@H]1O,> 100 µM,–
C=CCSSC1N=CNc2nc[nH]c21 (stereo unspecified),> 100 µM,6.18
C/C(=C\CO)CC/C=C(\C)CNc1ccccc1,44.3 µM,–
C=CC(=O)N1CC2(CCC(n3nc(-c4ccc(Oc5ccccc5)cc4)c4c(N)ncnc43)CC2)C1,9.51 µM,0.125
CC(C)CC(N=Cc1nc(-c2ccccc2)oc1O)C(=O)O (stereo unspecified),> 100 µM,–
O=C1OC(c2ccc(O)c(F)c2)(c2ccc(O)c(F)c2)c2cccc3cccc1c23,> 25 µM,–
Cc1ccc2cc3c(N)c4c(C)ccc(C)c4nc3nc2c1,3.33 µM,1.6
